Data on six compounds can be found in the supplement of paper PMC4604168 (melanoma cell lines).

This is one part of the list. Most values come without repeats; read them as rough.
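Also: cell number obtained by counting DAPI-stained nuclei in high-throughput microscope images with image analysis software, screen run in 1,536-well plates.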

The assay deals with MEL-HO. Description: cell count relative to DMSO control; melanoma cells; higher = more viable cells. The note with it: library dose: low library concentration; 72 h.
The compound `Clc1ccc(Nc2nnc(Cc3ccncc3)c3ccccc23)cc1` [vatalanib] + Cn1c(Nc2ccc(C(F)(F)F)cc2)nc2cc(Oc3ccnc(-c4ncc(C(F)(F)F)[nH]4)c3)ccc21 [CHIR265] (first compound 2 µM, partner dose 0.08 µM) showed a cell count of 91.5%. In the case of `Cn1c(Nc2ccc(C(F)(F)F)cc2)nc2cc(Oc3ccnc(-c4ncc(C(F)(F)F)[nH]4)c3)ccc21` + C[C@]1(c2nc3c(C(N)=O)cccc3[nH]2)CCCN1 [Veliparib] (first compound 0.08 µM, partner dose 1.4 µM), the cell count was 77.4%. On to `OCc1c[nH]c2ccccc12` [Indole-3-carbinol] + Cc1nc(Nc2ncc(C(=O)Nc3c(C)cccc3Cl)s2)cc(N2CCN(CCO)CC2)n1 [dasatanib] (first compound 0.8 µM, partner dose 0.004 µM), for which the cell count is 88.6%. `Cn1c(Nc2ccc(C(F)(F)F)cc2)nc2cc(Oc3ccnc(-c4ncc(C(F)(F)F)[nH]4)c3)ccc21` + COCC[n+]1c2c(n(Cc3cnccn3)c1C)C(=O)c1ccccc1C2=O [YM155] (first compound 0.08 µM, partner dose 0.0004 µM) displayed a cell count of 85.2%. `Clc1ccc(Nc2nnc(Cc3ccncc3)c3ccccc23)cc1` [vatalanib] + C=CCn1c(=O)c2cnc(Nc3ccc(N4CCN(C)CC4)cc3)nc2n1-c1cccc(C(C)(C)O)n1 [MK1775] (first compound 2 µM, partner dose 0.02 µM): the cell count was determined as 91%. On to `Clc1ccc(Nc2nnc(Cc3ccncc3)c3ccccc23)cc1` [vatalanib] + Nc1cccc2c1CN(C1CCC(=O)NC1=O)C2=O [lenalidomide] (first compound 2 µM, partner dose 1 µM), for which the cell count was 88.9%.
